Source: PubChem BioAssay AID588342 (National Center for Advancing Translational Sciences (NCATS), 2011)
Out of some 360,000 compounds screened, about 25,000 (6.9%) were called active. The inconclusive results got no clear call from the source; some entries with a clear call stand among them for comparison. The call rests on the fitted dose curve; in most records, active means well fitted inhibition curve with a large enough effect; inconclusive means small, poorly fitted or top-dose-only effect; inactive means flat fitted curve, though single readings scatter. A potency beside an inconclusive call is a rough fit, not a confirmed value.

target: Luciferin 4-monooxygenase (Photinus pyralis) (UniProt P08659); experiment: qHTS profiling assay for firefly luciferase inhibitor/activator using purifed enzyme and Km concentrations of substrates (counterscreen for miR-21 project); settings: purified FLuc, luminescence inhibition; series mostly up to 57.5 µM; activity change, negative = inhibition: at the top concentration; further: nearly all actives have a fitted effect of over 55% in size;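 on activity change, negative = inhibition: plate controls were vehicle for no effect and reference inhibitor for full effect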
Sequence of UniProt P08659 (P08659 whole entry, looked up): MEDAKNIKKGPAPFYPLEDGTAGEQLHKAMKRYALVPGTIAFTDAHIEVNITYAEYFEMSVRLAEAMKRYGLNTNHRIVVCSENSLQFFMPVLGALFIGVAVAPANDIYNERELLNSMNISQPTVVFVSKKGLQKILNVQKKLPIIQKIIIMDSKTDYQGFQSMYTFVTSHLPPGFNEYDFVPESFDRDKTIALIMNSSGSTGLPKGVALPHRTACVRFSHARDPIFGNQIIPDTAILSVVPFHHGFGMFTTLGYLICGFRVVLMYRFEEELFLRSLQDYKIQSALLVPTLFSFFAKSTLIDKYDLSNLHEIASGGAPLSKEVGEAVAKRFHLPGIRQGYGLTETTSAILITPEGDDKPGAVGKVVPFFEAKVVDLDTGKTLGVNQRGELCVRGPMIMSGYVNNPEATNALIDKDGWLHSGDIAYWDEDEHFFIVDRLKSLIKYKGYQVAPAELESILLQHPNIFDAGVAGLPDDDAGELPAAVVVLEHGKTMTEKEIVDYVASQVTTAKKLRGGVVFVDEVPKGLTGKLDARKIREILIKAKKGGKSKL
Outline: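 Purified P. pyralis luciferase, 10 nM final, with Km-level 10 uM D-luciferin and 10 uM ATP in 50 mM Tris acetate pH 7.5, 10 mM Mg acetate, 0.01% Tween-20, 0.05% BSA; 6-point qHTS titration about 60 µM downward; luminescence read.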
Potency means the concentration at half of the fitted maximal effect; tags describe the fitted curve by direction and shape.

| SMILES | activity change, negative = inhibition | Potency |
| --- | --- | --- |
| Cc1nc2cc(-c3ccc(Cl)cc3)nn2c(C)c1CCC(=O)NCc1ccco1 | inactive: -13.1% | – |
| CCOC(=O)C1=C(COc2ccccc2)NC(=O)NC1c1ccc(Br)cc1 (configuration not stated) | inactive: -0.871% | – |
| O=C(Cn1nc(C(=O)O)c2ccccc2c1=O)Nc1ccc2c(c1)C(=O)c1ccccc1C2=O | inactive: -28.9% | – |
| O=C(Nc1ccc2c(c1)OCO2)C1COc2ccccc2O1 (configuration not stated) | – | active: 16.9 µM |
| O=C(CCCOc1ccccc1)N1CCCc2ccccc21 | – | inconclusive: 23.9 µM [inhibitor, single point] |
| Cc1ccc(NC(=O)Nc2ncccc2C)cc1 | – | active: 7.57 µM |
| Cc1ccc2[nH]c3c(NCCCN4CCCC4=O)ncnc3c2c1 | – | inconclusive: 15.1 µM [inhibitor, partial curve] |
| Cc1ccc(OCc2nnc(SCC(=O)CC(=O)Nc3ccccc3)o2)cc1 | – | inconclusive: 30.1 µM [inhibitor, single point] |
| Cc1noc(NS(=O)(=O)c2ccc(NC(=O)c3ccc(Br)cc3)cc2)c1C | – | active: 21.3 µM |
| CC1(C)CC(=O)c2c(oc3ccc(NS(=O)(=O)c4ccc(C(=O)O)cc4)cc23)C1 | – | inconclusive: 26.9 µM [inhibitor, single point] |
| CC(C)Cc1ccc(CN2CCCC(NC(=O)c3cccc(-n4cnnc4)c3)C2)cc1 (configuration not stated) | – | inconclusive: 21.3 µM [inhibitor, partial curve] |
| CCOC(=O)C1CCCN(S(=O)(=O)CCNC(=O)c2cccc(OC)c2)C1 (configuration not stated) | inactive: -5.08% | – |
| N#C/C(=C/c1cn(CC(=O)O)c2ccccc12)C(=O)NCc1ccccc1 | – | inconclusive: 23.9 µM [inhibitor, partial curve, poor fit] |
| Cc1cc(C(=O)COc2ccc(Br)cc2F)c(C)n1C1CC1 | – | active: 13.5 µM |
| CCNC(=O)C/C(C)=N/NC(=O)C(=O)Nc1ccc(CC)cc1 | – | inconclusive: 23.9 µM [inhibitor, partial curve, poor fit] |
| O=C(CCn1c(=O)sc2ccccc21)NC1=NCCS1 | – | inconclusive: 26.9 µM [inhibitor, partial curve, poor fit] |
| CN(C)c1nc(N)ncc1-c1ccc(Oc2ccccc2)cc1 | inactive: -0.878% | – |
| CN(C(=O)c1ccccn1)c1nnc(-c2cccnc2)s1 | – | inconclusive: 37.9 µM [inhibitor, single point] |
| CCOCC(=O)Nc1cc(C(=O)Nc2ccccc2)ccc1Cl | – | inconclusive: 37.9 µM [inhibitor, single point] |
| Oc1ccccc1/C=N/NC(=S)NC1CC2CCC1C2 (configuration not stated) | – | active: 26.9 µM |
| COc1ccc(NC(=O)Nc2cc(C)ccc2F)cc1OC | – | inconclusive: 19 µM [inhibitor, partial curve, poor fit] |
| Cc1ccc(S(=O)(=O)N(C)/N=C/c2ccc(C(=O)O)cc2)cc1 | – | inconclusive: 37.9 µM [inhibitor, partial curve, poor fit] |
| Cc1ccc(-c2cc(-c3coc4ccccc4c3=O)c3c(n2)-c2ccccc2OC3)cc1 | inactive: -3.27% | – |
| CC(=C/c1ccc(C(C)C)cc1)/C=N/NC(=O)CSc1ccccn1 | – | inconclusive: 23.9 µM [inhibitor, single point] |

| SMILES | activity change, negative = inhibition | Potency |
| --- | --- | --- |
| COc1ccc(/C=N/NC(=O)c2cc3cc(OC)c(OC)cc3[nH]2)cc1 | – | inconclusive: 26.9 µM [inhibitor, single point] |
| COc1cc2oc(=O)c(CC(=O)NCc3ccc(OC)c(OC)c3)c(C)c2cc1Cl | inactive: 4.1% | – |
| Cc1ccc(-c2noc(-c3ccc(N4CCCCC4C)c([N+](=O)[O-])c3)n2)cc1 (configuration not stated) | – | inconclusive: 12 µM [inhibitor, partial curve] |
| O=[N+]([O-])c1cccc(/C=N/Nc2nc(NCc3ccccc3)nc(N3CCOCC3)n2)c1O | – | active: 16.9 µM |
| O=C(c1ccc(F)cc1)c1ccc(-c2ccc(F)cc2)nc1 | – | inconclusive: 12 µM [inhibitor, partial curve, poor fit] |
| Cc1ccc(Nc2cc(-n3cccn3)ncn2)c(C)c1 | – | active: 10.7 µM |
| CCC(=O)Nc1cccc(-n2nnnc2SCC(=O)NCc2ccco2)c1 | inactive: 3.24% | – |
| Cc1c(Cl)cccc1NC(=O)c1cc2sccc2n1Cc1ccc(F)cc1 | inactive: 3.44% | – |
| CCCCCCOC(=O)Nc1ccc(S(=O)(=O)Nc2cccc([N+](=O)[O-])c2)cc1 | – | inconclusive: 37.9 µM [inhibitor, partial curve, poor fit] |
| O=C(NCCC1=CCCCC1)c1cc2c(s1)CS(=O)(=O)C2 | – | inconclusive: 19 µM [inhibitor, partial curve, poor fit] |
| O=C(NCc1ccco1)c1ccc(Oc2ccccc2)cc1 | – | active: 23.9 µM |
| CCOC(=O)c1ccccc1NC(=O)c1ccc2c(Cl)c3c(nc2c1)CCC3 | – | active: 5.36 µM |
| CCn1c(COc2ccccc2)nnc1SCC(=O)Nc1ccc(N2CCOCC2)cc1 | – | inconclusive: 10.7 µM [inhibitor, partial curve] |
| CCOc1ccc(CNC(=O)C2CCN(S(=O)(=O)c3ccc4c(ccn4C)c3)CC2)cc1 | inactive: -11.9% | – |
| CC(C)C(=O)Nc1cccc(C(=O)Nc2ccccc2C(=O)O)c1 | – | active: 7.57 µM |
| COCCN(C(=O)CSc1n[nH]c(-c2ccc(OC)cc2)n1)c1c(N)n(Cc2ccccc2)c(=O)[nH]c1=O | – | inconclusive: 4.78 µM [inhibitor, partial curve, poor fit] |
| CCc1ccc(NC(=O)C(=O)c2ccccc2NC(C)=O)cc1 | – | inconclusive: 23.9 µM [inhibitor, partial curve] |
| CC(C)=CC(=O)N1CCCC(N2CCN(c3ccc(F)cc3)CC2)C1 (configuration not stated) | inactive: 2.67% | – |
| COc1ccc2nc(N=NC3=C(O)CC(C)(C)CC3=O)sc2c1 | – | inconclusive: 23.9 µM [inhibitor, single point] |
| O=C(CCN1C(=O)c2ccccc2C1=O)N(CCO)Cc1ccccc1 | inactive: -4.43% | – |
| CC(=O)c1ccc(NC(=O)c2nc(-c3ccccc3)n(-c3ccccc3Cl)n2)cc1 | – | inconclusive: 21.3 µM [inhibitor, single point] |
| O=c1oc(-c2ccccc2)nc2sc3c(c12)CCC3 | – | active: 2.39 µM |
| Cc1ccc(CNc2ccc3c(c2)ncn3C(C)(C)C)cc1 | – | active: 9.53 µM |
